The record followed here is article PMC12040169 (PLOS Biology, 2025).

This is one part of the list.

This test has as its system T1, C. trachomatis L2/434/Bu expressing GFP (CTL2-GFP).
T1 construct: L2/434/Bu GFP intracellular growth in HeLa cells
Also on record: species or system HeLa; C. trachomatis total inclusion area by high-content imaging, normalised to DMSO. As to conditions: total inclusion area; 28.5 h, 10 µM; inhibitor. A digest of the protocol: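 Imaging read-out: GFP inclusions and Hoechst nuclei captured by high-content imaging after fixation. Inclusion area/number = chlamydial growth; nuclei count = host cell viability. MIC calculated per earlier method.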
As to `Cn1ccc(CN2CCOC(c3nc(C(C)(C)C)n[nH]3)C2)cc1=O` (stereo not drawn) [CBK304495], the “% of control remaining” value stood at 58.2166.

As to `Cn1c(=O)c2c(nc(CN3CCN(C(=O)c4ccco4)CC3)n2Cc2ccccc2)n(C)c1=O` [CBK269437], the “% of control remaining” value was determined as 67.0388. Under `CC(C)S(=O)(=O)N1C[C@@H](c2ccccc2)[C@H]2[C@H]1CCCCCN2C` [CBK283083] stands 92.821; under `O=C(C1CN(S(=O)(=O)c2ccccc2)CCN1S(=O)(=O)c1ccccc1)N1CCCCC1` (stereo not drawn) [CBK262686], 103.954; under `CC(=O)c1sc(NC(=O)Cc2ccc(C)cc2)nc1C` [CBK287760], 72.174. Under `O=C(Cc1ccc(F)cc1)N1CCCC(c2nccnc2-c2cccc(C(F)(F)F)c2)C1` (stereo not drawn) [CBK286210] stands 126.711. For the compound `CCc1nc2ccc(C(=O)N(C)CCN(C)C)cn2c1N(C)C(=O)C1CCCCC1` [CBK145771], the “% of control remaining” value amounted to 98.7516.

For `O=C(NCc1c(Cl)cccc1Cl)N1CCN(c2ccccc2)CC1` [CBK155194], the “% of control remaining” value is 99.8036. For the compound `C(=C\c1ccccc1)/CN1CCN(C2CCN(CCc3ccccc3)CC2)CC1` [CBK261923], the “% of control remaining” value turned out to be 72.1917. As for `O=c1[nH]c2ncc(-c3cccc(-c4ccccc4)c3)nc2n1Cc1ccccc1` [CBK064252], the figure is 109.956; as for `N#Cc1cccc(CN2CCCC3(CCN(C(=O)Cc4c[nH]c5ccccc45)C3)C2)c1` (stereo not drawn) [CBK132032], 77.9795.

On to `C=CCNC1OC(CO)C(O)C(O)C1O` (stereo not drawn) [CBK261357], for which the “% of control remaining” value is given as 117.292.

As for `NCc1cnc2c(c1)CCC2` [CBK018584G], the “% of control remaining” value worked out at 41.3956. `Cc1ccc(-c2ccc(/C=C/c3cc(C(F)(F)F)nc(=O)[nH]3)o2)cc1Cl` [CBK018169]: the “% of control remaining” value was 85.2766. Turning to `CCOc1cc(/C=C2/NC(=O)N(c3ccccc3)C2=O)cc(Cl)c1OCc1cccc(C(=O)O)c1` [CBK265160], the “% of control remaining” value is on record as 113.713. Under `CC1(C)[C@H](Cc2cc(COc3ccccc3)on2)C[C@@H]1NC1CCOCC1` [CBK289694] stands 89.3304.

In the case of `NS(=O)(=O)c1ccc(CCNC2=CC(=O)CC(c3ccco3)C2)cc1` (stereo not drawn) [CBK265852], the “% of control remaining” value worked out at 120.008. Under `O=C1NCCC[C@@H]1NC(=O)[C@H]1CN(C(=O)c2ccccc2)CCN1C(=O)c1cccnc1` [CBK289634] stands 119.644; under `CC(=O)Nc1ccc(CNC(=O)c2ccc(C(F)(F)F)cn2)cc1` [CBK252121], 39.8814. For the compound `COc1ccc(S(=O)(=O)N(CC(=O)N2CCc3ccccc3C2)C2CCCCC2)cc1Cl` [CBK268525], the “% of control remaining” value was found to be 97.3536. As for `Cc1cccn2c(=O)cc(CN3CCC(c4cn[nH]c4)CC3)nc12` [CBK305764], the “% of control remaining” value is listed as 37.7556. As to `COc1ccc2nc(Nc3nc(-c4cccnc4)cs3)sc2c1` [CBK287482], the “% of control remaining” value amounted to 83.9661. Under `Cc1nonc1CC(=O)N1C2CCC1CC(c1ccc(F)cc1)C2` (stereo not drawn) [CBK283739] stands 97.8758; under `Cc1ccn2cc(-c3cc4c(ccc5ccccc54)oc3=O)nc2c1` [CBK287313], 101.133.

`CC(=O)OC(COc1ccc2ccccc2c1Br)Cn1cnc2ccccc21` (stereo not drawn) [CBK266083]: the “% of control remaining” value was determined as 71.686. As for `CCNC(=O)NCc1ccc(F)cc1` [CBK115581], the figure is 77.5611; as for `Cc1cc(C(=O)CSc2nccc(C(F)(F)F)n2)c(C)n1C1CC1` [CBK305238], 42.2275; as for `NC(=O)c1ccc2[nH]c(-c3cscn3)nc2c1` [CBK017800], 85.6988.

In the case of `COc1cccc(-c2nnc(NC(=O)c3ccc4c(c3)OCCO4)o2)c1` [CBK287591], the “% of control remaining” value is recorded as 95.7222. As for `CC(C)COc1ccc(C(CC(=O)O)C(=O)O)cc1` (stereo not drawn) [CBK286759], the figure is 83.0056. As for `CN(C)CCNc1cc(-c2ccc3ccccc3c2)nc2ccccc12` [CBK278186B], the figure is 4.361; as for `Cc1cccc2c(=O)nc(-c3ccccc3Cl)oc12` [CBK152422], 72.2358; as for `COc1ccc2[nH]cc(CCNC(=O)c3cccnc3)c2c1` [CBK122722], 119.273.

On to `CN1CCC(OC(=O)COc2ccc(Cl)cc2Cl)CC1` [CBK266389C], for which the “% of control remaining” value came out at 93.0255. Under `O=S1(=O)CCN(Cc2cn(-c3ccc(-c4ccccc4)cc3)nn2)CC1` [CBK113105] stands 103.92; under `CCNC(=O)/N=C(\N)Nc1nc2ccccc2s1` [CBK028890], 53.5463; under `CCOc1ccc(CN(C)C(=O)Nc2cc(C)on2)cc1` [CBK306216], 28.8307. Take `CSc1nc(O)c(C(c2cccc([N+](=O)[O-])c2)c2c(O)nc(SC)nc2O)c(O)n1` [CBK265370]: the “% of control remaining” value stood at 118.199. Under `O=C(NCc1ccc(Cl)c(Cl)c1)N1CCN(c2cc(C(F)(F)F)ccn2)CC1` [CBK156434] stands 76.1729; under `COC(=O)c1c(NC(=S)Nc2ccc(Br)cn2)sc2c1CCC2` [CBK266862], 99.4651.

For `N[C@H](CCc1nc2ccccc2[nH]1)C(=O)O` [CBK172614], the “% of control remaining” value is listed as 113.336.

In the case of `CCN(CC)C(=O)C1CCCN(C(=O)NCCN2CCOCC2)C1` (stereo not drawn) [CBK156128], the “% of control remaining” value is 104.744. As to `CCOc1cc(NC2CCN(C(=O)CC3CCCCC3)CC2)ncn1` [CBK305506], the “% of control remaining” value is given as 86.3528. Consider `Nc1ncc(-c2ccc(C(F)(F)F)cc2)c(C2CCCN(C(=O)CN3CCCC3)C2)n1` (stereo not drawn) [CBK285649], for which the “% of control remaining” value is 116.801.

With `COCCNc1nc(-c2cccc3ccccc23)cnc1N` [CBK063574], the “% of control remaining” value worked out at 90.5185. Regarding `COCCN1CCn2c(nc3cc(NC(=O)c4ccccc4)ccc32)C1` [CBK307410], the “% of control remaining” value was found to be 83.483. Under `CC(NC(=O)C1(Cn2ccnc2)CC1)c1nc(-c2ccccn2)no1` (stereo not drawn) [CBK307514] stands 55.5062; under `CN1C(=O)C2(N=C(N)NC(Nc3ccc(F)cc3)=N2)c2ccccc21` (stereo not drawn) [CBK270285], 108.949. For the compound `O=C(NNC(=O)c1ccc2c(c1)C(=O)N(Cc1ccco1)C2=O)c1cccnc1` [CBK267403], the “% of control remaining” value was found to be 94.0943. Under `CC1(C)Cc2ccccc2C(NCCC(=O)O)=N1` [CBK023412] stands 92.3257; under `CNC(=O)c1ccc(-c2ccc(CNC(=O)C3(c4cccc(F)c4)CCCC3)cc2)nc1C` [CBK286013], 101.737; under `Cc1oc(NC(=O)CN2CCN(c3ccccc3)CC2)c(C#N)c1C` [CBK306044], 88.8946. As for `O=C(NCCNCc1ccco1)c1ccc(F)cc1` [CBK266873G], the figure is 93.6563; as for `Cc1ccccc1NC(=O)Cn1c(=O)n(CC(=O)Nc2ccccc2C)c2ccccc21` [CBK266938], 114.121. As for `CN1C(CC(O)c2ccccc2)CCCC1C(=O)c1ccccc1` (stereo not drawn) [CBK268467C], the figure is 77.4329; as for `O=C1COc2ccccc2C/C=C/CC2(CCCNC2)CN1` (stereo not drawn) [CBK292029], 108.886. As for `CS(=O)(=O)N1CCC(C(=O)NNC(=S)Nc2cccc3ccccc23)CC1` [CBK266811], the “% of control remaining” value came out at 76.938. In the case of `Cc1ccc(S(=O)(=O)NCC(=O)N2CCN(c3ccc(Cl)cc3)CC2)cc1` [CBK091315], the “% of control remaining” value was found to be 103.492. As for `CC(C)c1ccc(/C=C/C(=O)NCC2COc3ccccc3O2)cc1` (stereo not drawn) [CBK149619], the figure is 75.3655; as for `NC(=O)c1cccc(-c2cnc(N)c(NC3CCOCC3)n2)c1` [CBK063836], 112.59. Turning to `O=C(Cn1ncc2cccn2c1=O)Nc1ccc(F)cc1` [CBK283672], the “% of control remaining” value came out at 87.9824.

As to `COCCN1CCCC(NC(C)c2ccc(OC)c(F)c2)C1` (stereo not drawn) [CBK305099], the “% of control remaining” value was 108.962. In the case of `COCCn1c(C)cc(C(=O)CSc2cc(C)c3ccccc3n2)c1C` [CBK266437], the “% of control remaining” value was 57.3152. Under `O=C(O)c1ccc(Oc2cccc([N+](=O)[O-])c2)cc1C(=O)O` [CBK261179] stands 89.5308; under `COc1ccccc1CNCc1ccccn1` [CBK262261], 106.376. In the case of `O=C1Nc2ccccc2C12NN=C(c1ccccc1)S2` (stereo not drawn) [CBK017221], the “% of control remaining” value is 78.9961. As for `Cc1cc(C)n(CC(=O)N2CCC(c3cc4cccnc4[nH]3)CC2)n1` [CBK284999], the “% of control remaining” value was determined as 96.4041.

As for `N=C(N)NCCc1ccc(Cl)cc1` [CBK024074G], the “% of control remaining” value was found to be 80.8174. As for `CS(=O)(=O)c1ccc(-n2nnnc2CN2CCC3(CCCC3)C2)cc1` [CBK306178], the figure is 47.1277. Under `O=C(O)CSc1ccc(Br)c2cccc(C(=O)O)c12` [CBK126919] stands 114.428.

On to `CCOc1ccc(Cc2nnc(S)n2C2CC2)cc1OCC` [CBK288388], for which the “% of control remaining” value stood at 81.3019. Turning to `O=C(CN1CCCC1)Nc1sc2c(c1C(=O)NCc1ccccc1)CCCC2` [CBK268926], the “% of control remaining” value is on record as 90.7216. Under `Cc1ccnc(NS(=O)(=O)c2ccc(NS(C)(=O)=O)cc2)n1` [CBK261552] stands 108.314; under `Cc1nc(CC(=O)NC(Cc2ccsc2)c2cccnc2)cs1` (stereo not drawn) [CBK285389], 81.2635. As for `N#Cc1ccc(CNC(=O)c2ccc3nc[nH]c3c2)cc1` [CBK153332], the figure is 56.6142; as for `CC(C)[C@H](CO)Nc1nc(-c2ccc(CCC(=O)O)cc2)cn2ccnc12` [CBK037522], 132.112; as for `Cc1ccc(C(=O)c2coc3ccc(OCC(=O)O)cc23)cc1` [CBK263084], 95.7426. As for `O=C(OCCc1cccnc1)N1CCC(C(F)(F)F)CC1` [CBK200159], the figure is 116.523; as for `Cn1ccnc1C(=O)N1C[C@H]2CCc3c(n[nH]c3C(F)(F)F)[C@H]2C1` [CBK283441], 102.579; as for `O=C(COc1ccc(S(=O)(=O)N2CCCC2)cc1Cl)Nc1ccc2c(c1)OCCO2` [CBK268559], 90.9156. Consider `C[C@H](Nc1nc(-c2cccc3ncccc23)cnc1N)c1ccccc1` [CBK063771], for which the “% of control remaining” value is 91.492.
